# Source: PubChem BioAssay AID588342 (National Center for Advancing Translational Sciences (NCATS), 2011)
# The campaign covered roughly 360,000 compounds. About 25,000 (6.9%) were called active. The shares of active, inactive and inconclusive entries below differ from those in the screen. The call rests on the fitted dose curve; in most records, active means well fitted inhibition curve with a large enough effect; inconclusive means small, poorly fitted or top-dose-only effect; inactive means flat fitted curve, though single readings scatter. A potency beside an inconclusive call is a rough fit, not a confirmed value.
# Biological target: Luciferin 4-monooxygenase (Photinus pyralis) (UniProt P08659)
# UniProt P08659, sequence (P08659 whole entry, looked up): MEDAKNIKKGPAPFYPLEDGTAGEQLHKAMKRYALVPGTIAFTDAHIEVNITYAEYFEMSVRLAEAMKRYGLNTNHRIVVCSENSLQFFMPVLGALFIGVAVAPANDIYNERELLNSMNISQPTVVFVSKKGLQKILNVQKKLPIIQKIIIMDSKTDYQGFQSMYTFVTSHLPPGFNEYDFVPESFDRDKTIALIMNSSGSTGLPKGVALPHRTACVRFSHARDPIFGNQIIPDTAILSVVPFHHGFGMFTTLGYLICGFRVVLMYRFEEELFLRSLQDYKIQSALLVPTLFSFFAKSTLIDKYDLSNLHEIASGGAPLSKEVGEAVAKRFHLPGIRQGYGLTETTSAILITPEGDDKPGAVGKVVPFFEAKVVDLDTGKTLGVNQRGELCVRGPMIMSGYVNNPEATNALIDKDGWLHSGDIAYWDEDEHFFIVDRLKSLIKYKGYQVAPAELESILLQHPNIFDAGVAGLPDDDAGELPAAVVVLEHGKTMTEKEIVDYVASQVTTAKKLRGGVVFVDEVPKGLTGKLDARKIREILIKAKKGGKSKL
# Experiment: qHTS profiling assay for firefly luciferase inhibitor/activator using purifed enzyme and Km concentrations of substrates (counterscreen for miR-21 project); further: nearly all actives have a fitted effect of over 55% in size;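 on activity change, negative = inhibition: plate controls were vehicle for no effect and reference inhibitor for full effect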
# Conditions: purified FLuc, luminescence inhibition; series mostly up to 57.5 µM; activity change, negative = inhibition: at the top concentration
# Method in brief: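 Biochemical qHTS of compounds, final roughly 60 µM downward over six points, against 10 nM purified firefly luciferase using Km concentrations of substrates (10 uM D-luciferin, 10 uM ATP) in Tris acetate pH 7.5 buffer; luminescence output.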
# Potency means the concentration at half of the fitted maximal effect; tags describe the fitted curve by direction and shape.
SMILES,Potency,"activity change, negative = inhibition"
CCOc1nc(NC(=O)NS(=O)(=O)Oc2cccc(F)c2)nc(-c2ccccc2)n1,"inconclusive: 37.9 µM [inhibitor, partial curve, poor fit]",
CCc1ccc(NC(=O)C2=CC=CN3CCS(=O)(=O)N=C23)cc1,active: 15.1 µM,
CCn1c(SCC(=O)N/N=C/c2c[nH]c3ccccc23)nnc1-c1ccc(Cl)cc1,"inconclusive: 23.9 µM [inhibitor, partial curve, poor fit]",
CC1CCN(C(=S)NC(=O)c2ccc(C(C)(C)C)cc2)CC1,"inconclusive: 26.9 µM [inhibitor, single point]",
COC(=O)c1cc2oc3ccccc3c2n1Cc1nc(-c2cccc(Cl)c2)oc1C,,inactive: -1.65%
Cc1cccc(NC2=C(C#N)C(=O)NC3(CCCC3)S2)c1,"inconclusive: 26.9 µM [inhibitor, partial curve, poor fit]",
O=C(Nc1ccc(O)cc1)c1ccc(NC(=O)c2cccs2)cc1,"inconclusive: 21.3 µM [inhibitor, partial curve]",
COc1ccc(Cn2cc(C(=O)c3ccc(Cl)cc3)c(=O)c3cc4c(cc32)OCO4)cc1,,inactive: -1.26%
Cc1cccc(NCc2nc3ccccc3n2Cc2ccccc2)c1,active: 23.9 µM,
CC(C)CSc1ccc(S(=O)(=O)NCC(=O)O)cc1[N+](=O)[O-],"inconclusive: 37.9 µM [inhibitor, partial curve, poor fit]",
Cc1nnc(C)n1/N=C/c1cccc([N+](=O)[O-])c1,,inactive: -2.16%
CCOC(=O)Cn1cnc2sc(C(=O)OC)c(C)c2c1=O,"inconclusive: 23.9 µM [inhibitor, partial curve, poor fit]",
CCOC(=O)c1ccc(NC(=O)C2CC(=O)N(c3ccc4c(c3)OCCO4)C2)cc1 (stereo not given),,inactive: 4.6%
O=C(O)c1ccc(/C=N/n2cc(-c3ccccc3)[nH]c2=S)cc1,"inconclusive: 21.3 µM [inhibitor, partial curve, poor fit]",
CC(O)COc1ccc(/C(=N/O)c2ccccc2)cc1 (stereo not given),"inconclusive: 26.9 µM [inhibitor, partial curve, poor fit]",
COc1ccccc1NC(=O)c1oc2ccccc2c1NC(=O)c1c(F)cccc1F,"inconclusive: 19 µM [inhibitor, partial curve, poor fit]",
Fc1cccc(Cn2ccc(-c3ccc4c(c3)OCO4)n2)c1,active: 21.3 µM,
COC(=O)c1ccc(NC(=O)NCCCl)cc1,"inconclusive: 37.9 µM [inhibitor, partial curve, poor fit]",
NNC(=O)COc1cccc2cccnc12,,inactive: -4.97%
Cn1c(C(=O)N2CCc3ccccc3C2)cc2c(=O)n3ccccc3nc21,"inconclusive: 16.9 µM [inhibitor, partial curve]",
COc1ccc(S(=O)(=O)NCC(=O)N(CC(=O)NCC2CCCO2)Cc2ccccc2)cc1 (stereo not given),,inactive: 0.0961%
Clc1ccc(C2=NNC(=NCc3ccc4c(c3)OCO4)SC2)cc1,active: 19 µM,
O=C(c1cccc(C(F)(F)F)c1)N1CCN(CCc2ccccc2)CC1,,inactive: 1.17%

SMILES,Potency,"activity change, negative = inhibition"
CC(OC(=O)c1ccccc1NCCO)C(=O)NCC(=O)Nc1ccc(F)c(F)c1F (stereo not given),,inactive: -0.185%
O=C(O)c1ccc(CSc2ccccn2)cc1,"inconclusive: 37.9 µM [inhibitor, partial curve, poor fit]",
Cn1cc(Br)c(C(=O)Nc2ncc(Br)s2)n1,,inactive: -16%
COc1ccc(C(=O)Nc2cc(C(C)C)c(O)c(S(=O)(=O)c3ccc(OC)cc3)c2C)cc1,"inconclusive: 7.57 µM [inhibitor, partial curve, poor fit]",
c1ccc(Cc2nnc(SCc3nc(-c4cccs4)no3)n2-c2ccccc2)cc1,"inconclusive: 26.9 µM [inhibitor, partial curve, poor fit]",
COc1ccc2c(c1)c(C(=O)OCCN(C)C)c(C)n2C,"inconclusive: 37.9 µM [inhibitor, partial curve, poor fit]",
CC(C)c1ccc2oc(-c3cc(NC(=O)c4cccs4)ccc3Cl)nc2c1,"inconclusive: 9.53 µM [inhibitor, partial curve]",
Cc1ccccc1C(=O)NC1CCN(CC(=O)N2CCCCC2C)CC1 (stereo not given),,inactive: -1.21%
COc1ccc(-c2onc3ccc(Cl)cc23)cc1,"inconclusive: 10.7 µM [inhibitor, partial curve]",
CCOc1ccccc1NC(=O)c1ccc2ccccc2c1,active: 21.3 µM,
O=C(Nc1ccc2c(c1)COC2=O)c1ccc(Cl)c(Cl)c1,"inconclusive: 3.38 µM [inhibitor, full curve]",
CCOc1ccc(C(=O)NCCc2csc(-c3ccc(C(F)(F)F)cc3)n2)cc1OCC,,inactive: -0.164%
CCOc1ccc(C(=O)Nc2ccc(N3CCCC3)cc2)cc1,"inconclusive: 13.5 µM [inhibitor, partial curve]",
O=C(O)c1cnn(-c2ccccc2)c1C(F)(F)F,"inconclusive: 26.9 µM [inhibitor, partial curve, poor fit]",
Cc1ccc(-c2cnc(NC(=O)CCC(=O)N3CCCCC3)n2C)cc1,"inconclusive: 26.9 µM [inhibitor, partial curve, poor fit]",
CS(=O)(=O)c1ccc(NC(=O)c2ccc3c(c2)S(=O)(=O)N=C2CCCCCN23)cc1,"inconclusive: 0.757 µM [inhibitor, partial curve, poor fit]",
CC(C)OC(=O)CSc1nnnn1-c1ccc2c(c1)OCCO2,active: 16.9 µM,
CC(C)N(Cc1ccccc1)C(=O)COC(=O)/C=C/c1cnc2ccccc2n1,,inactive: -2.41%
Clc1nc(Cl)nc(-c2cn(-c3ccccc3)c3ccccc23)n1,"inconclusive: 30.1 µM [inhibitor, single point]",
Cc1ccc(C)c(NC(=O)c2ccccn2)c1,"inconclusive: 23.9 µM [inhibitor, partial curve]",
Fc1cccc(Cl)c1CSc1ccc(-c2cccnc2)nn1,"inconclusive: 23.9 µM [inhibitor, single point]",
CCn1c(C)nc2cc(C(=O)OCCC(F)(F)F)ccc21,"inconclusive: 23.9 µM [inhibitor, single point]",
